# From IntAct's records for PubMed 11937501
# B1: Glutamate receptor ionotropic, NMDA 2B (Homo sapiens), Q13224 (parent)
# chain: MKPRAECCSPKFWLVLAVLAVSGSRARSQKSPPSIGIAVILVGTSDEVAIKDAHEKDDFHHLSVVPRVELVAMNETDPKSIITRICDLMSDRKIQGVVFADDTDQEAIAQILDFISAQTLTPILGIHGGSSMIMADKDESSMFFQFGPSIEQQASVMLNIMEEYDWYIFSIVTTYFPGYQDFVNKIRSTIENSFVGWELEEVLLLDMSLDDGDSKIQNQLKKLQSPIILLYCTKEEATYIFEVANSVGLTGYGYTWIVPSLVAGDTDTVPAEFPTGLISVSYDEWDYGLPARVRDGIAIITTAASDMLSEHSFIPEPKSSCYNTHEKRIYQSNMLNRYLINVTFEGRNLSFSEDGYQMHPKLVIILLNKERKWERVGKWKDKSLQMKYYVWPRMCPETEEQEDDHLSIVTLEEAPFVIVESVDPLSGTCMRNTVPCQKRIVTENKTDEEPGYIKKCCKGFCIDILKKISKSVKFTYDLYLVTNGKHGKKINGTWNGMIGEVVMKRAYMAVGSLTINEERSEVVDFSVPFIETGISVMVSRSNGTVSPSAFLEPFSADVWVMMFVMLLIVSAVAVFVFEYFSPVGYNRCLADGREPGGPSFTIGKAIWLLWGLVFNNSVPVQNPKGTTSKIMVSVWAFFAVIFLASYTANLAAFMIQEEYVDQVSGLSDKKFQRPNDFSPPFRFGTVPNGSTERNIRNNYAEMHAYMGKFNQRGVDDALLSLKTGKLDAFIYDAAVLNYMAGRDEGCKLVTIGSGKVFASTGYGIAIQKDSGWKRQVDLAILQLFGDGEMEELEALWLTGICHNEKNEVMSSQLDIDNMAGVFYMLGAAMALSLITFICEHLFYWQFRHCFMGVCSGKPGMVFSISRGIYSCIHGVAIEERQSVMNSPTATMNNTHSNILRLLRTAKNMANLSGVNGSPQSALDFIRRESSVYDISEHRRSFTHSDCKSYNNPPCEENLFSDYISEVERTFGNLQLKDSNVYQDHYHHHHRPHSIGSASSIDGLYDCDNPPFTTQSRSISKKPLDIGLPSSKHSQLSDLYGKFSFKSDRYSGHDDLIRSDVSDISTHTVTYGNIEGNAAKRRKQQYKDSLKKRPASAKSRREFDEIELAYRRRPPRSPDHKRYFRDKEGLRDFYLDQFRTKENSPHWEHVDLTDIYKERSDDFKRDSVSGGGPCTNRSHIKHGTGDKHGVVSGVPAPWEKNLTNVEWEDRSGGNFCRSCPSKLHNYSTTVTGQNSGRQACIRCEACKKAGNLYDISEDNSLQELDQPAAPVAVTSNASTTKYPQSPTNSKAQKKNRNKLRRQHSYDTFVDLQKEEAALAPRSVSLKDKGRFMDGSPYAHMFEMSAGESTFANNKSSVPTAGHHHHNNPGGGYMLSKSLYPDRVTQNPFIPTFGDDQCLLHGSKSYFFRQPTVAGASKARPDFRALVTNKPVVSALHGAVPARFQKDICIGNQSNPCVPNNKNPRAFNGSSNGHVYEKLSSIESDV
# partner: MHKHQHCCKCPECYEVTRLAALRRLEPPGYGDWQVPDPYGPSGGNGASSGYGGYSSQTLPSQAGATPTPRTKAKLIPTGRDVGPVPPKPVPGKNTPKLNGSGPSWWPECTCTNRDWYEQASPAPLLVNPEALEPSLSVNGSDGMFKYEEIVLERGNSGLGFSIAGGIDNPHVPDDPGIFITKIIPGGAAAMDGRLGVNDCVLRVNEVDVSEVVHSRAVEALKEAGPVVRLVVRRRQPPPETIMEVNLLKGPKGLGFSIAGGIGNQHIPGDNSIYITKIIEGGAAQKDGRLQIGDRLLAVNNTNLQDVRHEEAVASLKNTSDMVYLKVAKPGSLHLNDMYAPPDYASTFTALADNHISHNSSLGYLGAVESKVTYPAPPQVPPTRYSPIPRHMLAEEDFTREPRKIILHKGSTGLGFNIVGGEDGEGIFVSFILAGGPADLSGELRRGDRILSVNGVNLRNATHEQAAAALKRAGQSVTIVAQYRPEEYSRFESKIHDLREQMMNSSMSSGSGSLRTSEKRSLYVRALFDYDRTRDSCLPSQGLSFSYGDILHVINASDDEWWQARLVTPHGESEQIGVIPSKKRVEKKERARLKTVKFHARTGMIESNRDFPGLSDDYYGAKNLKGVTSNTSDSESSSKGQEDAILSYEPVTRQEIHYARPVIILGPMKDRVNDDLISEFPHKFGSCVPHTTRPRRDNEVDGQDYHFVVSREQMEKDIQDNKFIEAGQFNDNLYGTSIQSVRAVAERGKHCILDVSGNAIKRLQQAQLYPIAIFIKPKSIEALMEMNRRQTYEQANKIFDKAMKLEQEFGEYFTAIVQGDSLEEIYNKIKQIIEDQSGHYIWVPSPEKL
# Variants of: B1
# Details: with dlg3_rat Dlg3, Q62936
row,effect of a mutation on the interaction,Variant
1,disrupting interaction,V1484A
2,disrupting interaction,S1482A
